This is an account of results in PubChem BioAssay AID1159583 (ICCB-Longwood Screening Facility, Harvard Medical School, 2016).

This is one part of the list. Shown are side measurements of this screen, not its main read-out; they come without a call. The list favours compounds with an active or inconclusive main result.

The experiment in a line: hypoxia reporter signal reduction in M. tuberculosis – fluorescence, absorbance growth readout, primary screen (AID 1159583). The following applies: M. tuberculosis hypoxia-regulated fluorescent reporter, measured here: M. tuberculosis growth (absorbance), stronger effect = higher value, concentration not given here.
Take `O=C(Nc1ccc(S(=O)(=O)NC2=NCCCCC2)cc1)c1cccs1`: the growth inhibition came out at 54.1%.
Next, `Cc1ccc(NC(=O)c2ccc(Nc3c([N+](=O)[O-])cc([N+](=O)[O-])cc3[N+](=O)[O-])cc2)cc1`: 18.3%.
With `CCSc1nnc(NC(=O)[C@H](C)N2C(=O)C3CC=CCC3C2=O)s1` (some centres undefined), the growth inhibition came out at 50.1%.
Next, `Cn1c(-c2ccccc2)cc2c3no[n+]([O-])c3ccc21`: 26.3%; `COc1ccc(CCNC(=O)c2cc(-c3ccccn3)nc3ccccc23)cc1`: 55.1%.
In the case of `CN1CCS/C1=C/C=C1\SC(=S)N(CC(=O)O)C1=O` it was 4.61%; in that of `COc1ccc(OCC(=O)NC(=S)Nc2ccc(N3CCOCC3)c(Cl)c2)cc1`, 63.9%; in that of `COc1cc(N=Nc2ccccc2C(=O)O)ccc1O`, 14.1%.
Next, `O=C(NCC1CCCO1)c1sc(=S)n2c1[nH]c(=O)c1ccc(C(=O)N3CCCCC3)cc12` (centres undefined): 20%; `CC(NC(=O)COC(=O)c1ccc(N2CCCC2=O)cc1)c1ccc(F)cc1` (centres undefined): 76.2%; `CNC(=S)Nc1ccc(-c2nc3ccc(C)cc3s2)cc1`: 60.4%.
Consider `COCCNS(=O)(=O)c1ccc(-c2ccc(C)cc2)cc1`, for which the growth inhibition is 49.4%.
In the case of `O=[N+]([O-])c1ccccc1S(=O)(=O)Nc1ccc(S(=O)(=O)Nc2nccs2)cc1` it was 41.1%.
As to `CCC(C)N=Cc1c(Nc2ccccc2)nc2c(C)cccn2c1=O` (centres undefined), the growth inhibition was determined as 24.4%.
Regarding `CC1CCN(c2nc3ccccn3c(=O)c2C=O)CC1`, the growth inhibition worked out at 21.7%.
Regarding `O=[N+]([O-])c1ccc(NN=Cc2cc(Br)ccc2O)nc1`, the growth inhibition was found to be 5.66%.
Take `CSc1ncccc1C(=O)OCC(=O)c1ccc[nH]1`: the growth inhibition was 54.1%.
Next, `CC(C)Cn1c(=O)c(C(=O)Nc2ccncc2)c(O)c2ccccc21`: -2.62%; `CCOc1ccc2oc(C(=O)OCC(=O)NC3CCCCC3)c(C)c2c1`: 72%; `NS(=O)(=O)c1ccc(NC(=O)c2ccc(Cl)c(S(=O)(=O)NCc3ccco3)c2)cc1`: 61.6%.
`N#Cc1ccc(/C=C/C(=O)c2ccccc2)cc1`: the growth inhibition stood at 21.6%.
Next, `CCCCCCc1nnc(NC(=O)OCC)s1`: 19.8%; `O=C(OCC(=O)c1ccc(Cl)cc1Cl)c1ccccn1`: 63.1%; `C/C(=C1/SC(N2CCCC2)=NC1=O)c1ccc(Br)cc1`: 47.9%.
In the case of `CCCc1nnc(NC(=O)c2c(O)c3cccc4c3n(c2=O)CC4)s1` it was 30.4%; in that of `Cc1cccc(N(Cc2ccccc2)C(=O)CCl)c1`, 23%; in that of `CC1CCCN(C(=O)CSc2nnc(-c3cccs3)o2)C1` (centres undefined), 25.1%.
In the case of `CCCS(=O)(=O)N1CCN(Cc2ccc3c(c2)c2ccccc2n3CC)CC1` it was -2.89%; in that of `CCC(/C=C1\Sc2ccc(OC)cc2N1CC)=C\c1sc2ccc(OC)cc2[n+]1CCCS(=O)(=O)[O-]`, -49%.
Turning to `CCN(CC)CCCNc1nc2ccccc2c2nc(-c3ccncc3)nn12`, the growth inhibition is 20.1%.
On to `CCCOc1ccccc1OCC(=O)N1CCN(S(=O)(=O)c2ccc(Cl)cc2)CC1`, for which the growth inhibition was 70.6%.
In the case of `Cc1ccc(C(=O)OCC(=O)Nc2ccccc2)cc1S(=O)(=O)N1CCCCC1` it was 77.1%.
As for `O=C(COC(=O)c1cc(Cl)nc(Cl)c1)NCCc1ccc(F)cc1`, the growth inhibition worked out at 52.7%.
In the case of `COc1ccc(CN(C)C(=O)COC(=O)c2cc([N+](=O)[O-])ccc2N2CCCC2)c(OC)c1OC`, the growth inhibition was determined as 56%.
In the case of `Cc1nnc(NCc2ccccc2)c2ccccc12` it was 21.9%; in that of `O=C(COC(=O)Cc1cccs1)NCC(=O)Nc1ccc(F)cc1`, 73.4%; in that of `NC(=O)NN=Cc1cn(CC(=O)Nc2ccc(F)cc2)c2ccccc12`, 36.8%.
For the compound `Cc1ccc(OCCCC(=O)Nc2ccc(S(=O)(=O)N3CCOCC3)cc2)cc1`, the growth inhibition was 55.5%.
Next, `Nc1cc(Cl)c2nonc2c1[N+](=O)[O-]`: 23.9%.
With `Cc1cc(C)n2nc(N)c(N=Nc3ccccc3)c2n1`, the growth inhibition was determined as 46.8%.
Next, `CCCCn1c(=O)[nH]c(=O)c2c1nc(-c1ccc(-c3ccc(F)cc3)o1)n2C`: 8.76%; `CC(C)(C)c1ccc(OCc2cnc(Cl)s2)cc1`: 25.6%.
As for `CN(CC(=O)Nc1ccc(OC(F)(F)F)cc1)C(=O)/C=C/c1cc2c(cc1[N+](=O)[O-])OCO2`, the growth inhibition came to 62.6%.
In the case of `COc1ccc(C(=O)C(C)OC(=O)CNC(=O)c2ccco2)cc1` (centres undefined), the growth inhibition was found to be 64.5%.
Next, `COc1cc(-c2cc(C(=O)Nc3ccncc3)c3ccccc3n2)cc(OC)c1OC`: 52.7%.
With `O=C(Nc1cccc(Cl)c1)NC1CC2CCC1C2` (centres undefined), the growth inhibition is 50%.
In the case of `O=Cc1c(N2CCSCC2)nc2ccccn2c1=O` it was 16.4%; in that of `Cc1ccsc1/C=C1/SC(N2CCOCC2)=NC1=O`, 18.4%.
As for `CC(C)CN=c1cc(-c2ccccc2)oc2ccc(Cl)cc12`, the growth inhibition was -15.4%.
Consider `CCCCN(C(=O)CSc1nnc(-c2ccccc2)o1)c1c(N)n(CCC)c(=O)[nH]c1=O`, for which the growth inhibition stood at 67.3%.
`Cc1ccc(C(=O)COC(=O)c2cccc(NC(=O)c3ccc([N+](=O)[O-])cc3[N+](=O)[O-])c2)cc1`: the growth inhibition is 22.6%.
As to `COc1cc(/C=C2\SC(N)=NC2=O)ccc1OCC(=O)Nc1ccc(C)cc1`, the growth inhibition stood at 30.8%.
In the case of `CCc1ccc(OCC(=O)NNCC(=O)Nc2ccc(OC)cc2)cc1` it was 35.4%; in that of `CN(C)CCSc1nc2cc(S(=O)(=O)N3CCCCC3)ccc2o1`, 74.8%.
Next, `CCN(CC)C(=O)CSc1nnc2nnc3cc(OC)ccc3n12`: 38.3%; `O=C(CSc1nnc(-c2ccco2)o1)NCCc1ccccc1`: 14.1%.
In the case of `Nc1ccc(S(=O)(=O)Nc2nc3ccccc3o2)cc1`, the growth inhibition was 46.7%.
In the case of `CS(=O)(=O)c1ccc(C(O)C(CO)NC(=O)C(Cl)Cl)cc1` (centres undefined) it was 44.2%; in that of `COc1ccc(-c2sc3ccccc3c2-c2ccc(OCCN(C)C)cc2)cc1`, 30.1%.
In the case of `COc1ccc(CCNC(=O)c2ccc(Cl)cc2)cc1`, the growth inhibition turned out to be 58.3%.
As to `CN(CC(=O)Nc1ccc(OC(F)(F)F)cc1)C(=O)c1ccc(N2CCCC2=O)cc1`, the growth inhibition was found to be 53.7%.
With `COc1ccc(CN(C)C(=O)c2cccc(S(=O)(=O)N3CCCc4ccccc43)c2)c(OC)c1OC`, the growth inhibition was 66.8%.
As for `CN1CCC/C1=C/C=C1\SC(=S)NC1=O`, the growth inhibition was -2.6%.
Next, `CN(C(=O)CSc1ncnc2sc3c(c12)CCC3)C1CCS(=O)(=O)C1` (centres undefined): 72%; `CN1/C(=C\C=C2/SC(=S)N(CC(=O)O)C2=O)C(C)(C)c2ccccc21`: -1.45%; `Cc1ccc(C2(C)NC(=O)N(CC(=O)N3c4ccccc4NC(=O)CC3C)C2=O)cc1` (centres undefined): 53.2%.
Turning to `CC(C)(C)c1csc(NN=Cc2ccc(O)cc2)n1`, the growth inhibition is 59.2%.
Consider `COc1ccc(NC(C)C(=O)NN=Cc2ccc([N+](=O)[O-])s2)cc1` (centres undefined), for which the growth inhibition is 11.3%.
In the case of `O=C1CN(C(=O)COC(=O)c2c(F)cccc2Cl)c2ccccc2N1` it was 70.1%.
